Read-outs that look alike come from different tables or passages of the source.
System: A. fumigatus (ATCC 1022) spores
[1] = NO donor (24 h pretreatment of spores) then 5-fluorocytosine
[2] = NO donor (24 h pretreatment of spores) then amphotericin B
[3] = NO donor (24 h pretreatment of spores) then butenafine
[4] = NO donor (24 h pretreatment of spores) then caspofungin
[5] = NO donor (24 h pretreatment of spores) then fluconazole
[6] = NO donor (24 h pretreatment of spores) then miconazole

Row | SMILES | checkerboard classification [1] | ∑FIC [1] | checkerboard classification [2] | ∑FIC [2] | checkerboard classification [3] | ∑FIC [3] | checkerboard classification [4] | ∑FIC [4] | checkerboard classification [5] | ∑FIC [5] | checkerboard classification [6] | ∑FIC [6]
1 | NCCCNCCCCN(CCCN)/[N+]([O-])=N/O [SPER/NO, spermine/NO] | I (indifferent (I)) | ≥ 1 | I (indifferent (I)) | ≥ 1 | I (indifferent (I)) | ≥ 1 | I (indifferent (I)) | ≥ 1 | I (indifferent (I)) | ≥ 1 | I (indifferent (I)) | ≥ 1
2 | NCCCN(CCCN)/[N+]([O-])=N/O [DPTA/NO, bis(3-aminopropyl) amine/NO] | I (indifferent (I)) | ≥ 1 | I (indifferent (I)) | ≥ 1 | I (indifferent (I)) | ≥ 1 | I (indifferent (I)) | ≥ 1 | I (indifferent (I)) | ≥ 1 | I (indifferent (I)) | ≥ 1
3 | NCCN(CCN)/[N+]([O-])=N/O [DETA/NO, diethylenetriamine/NO] | I (indifferent (I)) | ≥ 1 | I (indifferent (I)) | ≥ 1 | – | – | I (indifferent (I)) | ≥ 1 | I (indifferent (I)) | ≥ 1 | I (indifferent (I)) | ≥ 1

Source: paper PMC11121837, “Impact of Nitric Oxide-Release Kinetics on Antifungal Activity” (Journal of Fungi, 2024)
